Reference: PMC4612729
No constants are given. Whether binding was seen depends on the method and setting. In cells and extracts the contact can be indirect. Some results given as binding are weak or reduced against the parent protein; the word gives no strength.

Protein sequences, listed by entry. Tags and fused reporters are not part of them. Lines headed by an entry give the natural chain unless they say otherwise; changes in a name come on top. Chains listed by the source or under a name are the forms on record and can include a tag or linker.
UniProt P17302: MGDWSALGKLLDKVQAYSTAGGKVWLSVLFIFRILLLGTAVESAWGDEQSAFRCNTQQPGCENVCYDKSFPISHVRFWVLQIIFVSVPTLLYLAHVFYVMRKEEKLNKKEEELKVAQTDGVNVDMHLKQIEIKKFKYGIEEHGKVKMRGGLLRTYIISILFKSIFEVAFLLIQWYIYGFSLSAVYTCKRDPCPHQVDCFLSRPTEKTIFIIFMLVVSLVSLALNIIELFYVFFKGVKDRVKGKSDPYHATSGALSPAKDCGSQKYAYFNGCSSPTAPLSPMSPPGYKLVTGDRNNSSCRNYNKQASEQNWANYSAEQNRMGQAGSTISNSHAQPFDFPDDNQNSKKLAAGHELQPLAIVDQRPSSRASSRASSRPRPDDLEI
UniProt P11802: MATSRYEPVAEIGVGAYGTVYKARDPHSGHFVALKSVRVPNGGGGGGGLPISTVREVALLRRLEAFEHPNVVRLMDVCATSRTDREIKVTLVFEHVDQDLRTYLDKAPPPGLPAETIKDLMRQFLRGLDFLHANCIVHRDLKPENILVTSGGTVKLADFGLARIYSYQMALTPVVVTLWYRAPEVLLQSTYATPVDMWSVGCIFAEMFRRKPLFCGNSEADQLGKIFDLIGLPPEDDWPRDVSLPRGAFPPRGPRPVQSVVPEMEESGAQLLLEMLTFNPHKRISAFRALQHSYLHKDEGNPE
UniProt P11142: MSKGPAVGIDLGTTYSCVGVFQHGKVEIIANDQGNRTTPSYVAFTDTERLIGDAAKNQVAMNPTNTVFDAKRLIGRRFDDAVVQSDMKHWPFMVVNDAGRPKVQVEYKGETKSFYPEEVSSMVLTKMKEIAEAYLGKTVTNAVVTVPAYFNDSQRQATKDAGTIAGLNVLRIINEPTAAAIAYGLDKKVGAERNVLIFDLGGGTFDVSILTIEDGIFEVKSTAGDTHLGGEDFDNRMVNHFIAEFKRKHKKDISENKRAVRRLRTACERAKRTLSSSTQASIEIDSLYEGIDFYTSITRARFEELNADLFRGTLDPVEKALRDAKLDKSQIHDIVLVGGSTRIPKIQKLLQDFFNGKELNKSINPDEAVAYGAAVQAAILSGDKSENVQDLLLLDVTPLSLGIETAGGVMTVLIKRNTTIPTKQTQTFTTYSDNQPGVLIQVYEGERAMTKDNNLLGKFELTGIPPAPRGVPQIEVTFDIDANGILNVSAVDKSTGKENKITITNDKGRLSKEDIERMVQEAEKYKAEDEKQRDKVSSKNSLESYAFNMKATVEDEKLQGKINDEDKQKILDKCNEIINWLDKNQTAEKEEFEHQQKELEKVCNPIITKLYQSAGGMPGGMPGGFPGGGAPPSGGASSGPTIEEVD
Hsc70 Δ385–543 mutant, T7-tagged (P11142, form named): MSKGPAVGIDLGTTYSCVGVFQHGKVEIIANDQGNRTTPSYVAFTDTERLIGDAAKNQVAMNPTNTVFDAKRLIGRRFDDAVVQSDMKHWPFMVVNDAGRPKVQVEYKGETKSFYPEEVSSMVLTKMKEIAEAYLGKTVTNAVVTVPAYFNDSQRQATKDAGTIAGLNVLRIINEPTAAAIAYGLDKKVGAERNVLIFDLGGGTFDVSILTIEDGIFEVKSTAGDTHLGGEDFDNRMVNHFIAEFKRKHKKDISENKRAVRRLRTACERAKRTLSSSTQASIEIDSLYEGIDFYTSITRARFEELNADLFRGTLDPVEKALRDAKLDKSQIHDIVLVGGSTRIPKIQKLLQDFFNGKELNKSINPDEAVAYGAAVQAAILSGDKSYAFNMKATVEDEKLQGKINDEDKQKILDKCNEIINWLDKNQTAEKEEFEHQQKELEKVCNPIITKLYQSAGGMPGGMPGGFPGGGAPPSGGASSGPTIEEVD
UniProt P24385: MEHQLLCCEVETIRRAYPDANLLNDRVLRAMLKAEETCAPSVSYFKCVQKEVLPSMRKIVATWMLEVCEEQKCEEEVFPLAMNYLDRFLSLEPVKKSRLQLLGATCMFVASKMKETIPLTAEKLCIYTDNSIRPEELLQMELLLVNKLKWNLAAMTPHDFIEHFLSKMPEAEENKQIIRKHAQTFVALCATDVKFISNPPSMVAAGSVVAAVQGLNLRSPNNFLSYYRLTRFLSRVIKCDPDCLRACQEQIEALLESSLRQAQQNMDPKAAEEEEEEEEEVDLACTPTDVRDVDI
UniProt P46527: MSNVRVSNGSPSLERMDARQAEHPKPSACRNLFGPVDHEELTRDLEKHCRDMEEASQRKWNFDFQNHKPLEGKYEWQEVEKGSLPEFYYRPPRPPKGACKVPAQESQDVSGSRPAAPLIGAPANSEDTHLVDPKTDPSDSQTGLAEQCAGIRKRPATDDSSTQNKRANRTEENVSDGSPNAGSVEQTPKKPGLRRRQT

Tests used:
[1] = target: Connexin 43 (Cx43), wild type (UniProt P17302); experiment: co-IP; whole lysates of HuH-7 cells transfected with Cx43 or HA-p27 and various forms of T7-Hsc70 (wild type and deletion mutants); western blot with anti-T7-tag and anti-Cx43 or anti-HA-tag antibodies; precipitating antibody not named in the legend
[2] = target: CDK4, FLAG-tagged (human) (UniProt P11802); experiment: co-IP; HuH-7 cells transfected with equivalent plasmids of HA-p27, cMyc-cyclin D1 and FLAG-CDK4, with or without T7-Hsc70, with or without Cx43, with or without siRNA of Hsc70; lysates immunoprecipitated by anti-FLAG-tag antibody or control IgG; western blot with anti-FLAG, anti-HA, anti-cMyc and anti-T7 tag antibodies
[3] = target: Connexin 43 (Cx43), wild type (UniProt P17302); experiment: co-IP; lysates of HuH-7 cells co-transfected with two plasmids, 48 hr after transfection; immunoprecipitated by anti-Cx43 (Fig. 3a, 3c) or anti-T7-tag (Fig. 3b) antibody or control IgG; western blot with anti-T7 or anti-HA antibody

Substance	binding [1]	binding [2]	binding [3]
Hsc70 Δ1–385 mutant, T7-tagged (from UniProt P11142 386-646) (domain or fragment)	binds	–	–
cyclin D1, cMyc-tagged (from UniProt P24385 1-295)	–	binds	–
CDK inhibitor p27, HA-tagged (from UniProt P46527 1-198)	–	binds	no binding
Hsc70 Δ543–646 mutant, T7-tagged (from UniProt P11142 1-542) (domain or fragment)	binds	–	–
heat shock cognate protein 70 (Hsc70), wild type, T7-tagged (from UniProt P11142 1-646)	binds	binds	binds
Hsc70 Δ385–543 mutant, T7-tagged (from UniProt P11142 1-646)	no binding	–	–
